Reference: the RNAGym collection of RNA variant scans (doi:10.1093/nar/gkz1192)
Read counts are not given, so values of variants with three or more changes are uncertain.

B1: CPEB3 Ribozyme (parent)
chain: UAACAGGGGGCCACAGCAGAAGCGUUCACGUCGCAGCCCCUGUCAGAUUCUGGUGAAUCUGCGAAUUCUGCUGUAUAUCUC

Variants of: B1
Assay: self-cleavage, relative activity (ratio to wild type); higher = more cleavage; in vitro, sequencing
Procedure, shortened: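 For each CPEB3 ribozyme variant, relative activity is its cleaved/total read fraction divided by the unmutated ribozyme's. Barcoded error-prone PCR libraries were transcribed by T7 RNA polymerase (5 hours, 37°C) and held in DNase I for 15 min before an EDTA stop, with cleavage occurring throughout. Template-switching reverse transcription and Illumina sequencing were used to read the RNAs. A 5-read minimum applied, and results are the mean of three batches.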
For U26C C34U A45G A56G U74C U80C, the self-cleavage was 0.19. For U26C A64U U67A, the self-cleavage was 0.09. U26C U31A A45G showed a self-cleavage of 0.43. For U26C A45G U66C, the self-cleavage was 0.19. U26C U54A A64U U72A showed a self-cleavage of 0.21. For U26C U31C C39A, the self-cleavage was 0.11. Work on U26C A64U U66C yielded a self-cleavage of 0.12. Variant U26C G33A U60C U66G has a self-cleavage of 0.09. U26C U48C U60A U78C showed a self-cleavage of 0.17. Variant U26C A45U U48C has a self-cleavage of 0.32. Work on U26C A45U U48A yielded a self-cleavage of 0.2. U26C A57C U72A showed a self-cleavage of 0.15. U26C U54C U60A A64U U78C gave a self-cleavage of 0.08. For C27A G30U U54C U58A G73A, the self-cleavage was 0.13. U26C U54C C62U U78C gave a self-cleavage of 0.05. U26C U54A U72C gave a self-cleavage of 0.5. U26C A45G G73A showed a self-cleavage of 0.69. Work on U26C A35U U41C A47G U48A U51C C81G yielded a self-cleavage of 0.23. In the case of U26C A56G A57G U74C, the self-cleavage is reported as 0.16. Work on U26C U60C G70A U80C yielded a self-cleavage of 0.08. U26C U43A A45G G53A U69C G73C gave a self-cleavage of 0.06. In the case of U26G U51A A56U, the self-cleavage is reported as 0.13. For U26C U31G G46A A56U U78A, the self-cleavage was 0.14. With U26C U58G C62U G70C U72A the self-cleavage was 0.08. In the case of U26C A45G G52C U74C C81U, the self-cleavage is reported as 0.39. U26C U43A A45G A47U U48A gave a self-cleavage of 0. In the case of U26C G63U U72C, the self-cleavage is reported as 0.75. U26C U31A U43C U54A gave a self-cleavage of 0.34. Variant U26C U41A U74A A75G has a self-cleavage of 0.29. With U26C U41C G73A the self-cleavage was 0.79. U26C U48A U76C A77U gave a self-cleavage of 0.18. U26C G33A A64G U72A gave a self-cleavage of 0.1. U26G U41C A45G U51C U58C showed a self-cleavage of 0.38. U26C C38U A64G showed a self-cleavage of 0.09. With U26C U41A A45G U76C the self-cleavage was 0.08. In the case of U26C C50U U60C, the self-cleavage is reported as 0.08. With U26C A45G U49C C62U U78C the self-cleavage was 0.32. Variant U26C U41C U60C A64U U72G has a self-cleavage of 0.11. With U26G A56G U76A the self-cleavage was 0.32. With U26C G30C A56G U58A A77U U80C the self-cleavage was 0.1. U26C A47C U67A showed a self-cleavage of 0.23. Variant U26C A45G U80A has a self-cleavage of 0.32. For U26C U43C A45U U66C, the self-cleavage was 0.26. Work on U26C C29U U76A yielded a self-cleavage of 0.31. C27A A47G A56U showed a self-cleavage of 0.08. For U26C U49C A64C U67C, the self-cleavage was 0.12. U26C C29A U51A A65G U67C showed a self-cleavage of 0.15. With U26C G46A U48C C50A U66G the self-cleavage was 0. With U26C C50G A57G U67C the self-cleavage was 0.12. Variant U26C U41C U54C has a self-cleavage of 0.39. For U26C U43C C44U U49C U67C, the self-cleavage was 0.08. Variant U26C U51C A56G U78C has a self-cleavage of 0.16. Work on U26G A45G G52A C71U yielded a self-cleavage of 0.06. With U26C A45U A47G U48C the self-cleavage was 0.15. Variant U26C G30C U31C A45U U51C A56G U69C has a self-cleavage of 0.14. Variant U26C U41C A77G has a self-cleavage of 0.47. Variant U26C U51A U69A U74C has a self-cleavage of 0.11. Variant U26C C38U U54A has a self-cleavage of 0.11. U26C U54G A57G showed a self-cleavage of 0.42. Work on U26C U67C U74C yielded a self-cleavage of 0.19. U26C U41C U60A gave a self-cleavage of 0.33. In the case of U26C U41A A65G U69C C81U, the self-cleavage is reported as 0.05. Work on U26C C34A U60C G73A U78G yielded a self-cleavage of 0.08. In the case of U26C A47G A64G A75G, the self-cleavage is reported as 0.19. In the case of U26C U31C U41C A45G, the self-cleavage is reported as 0.07. Work on U26C U60A A75U yielded a self-cleavage of 0.42. U26C C37U C44U U54C gave a self-cleavage of 0.08. Work on U26C C40A A56G yielded a self-cleavage of 0.16. Work on U26C U31A U41C U49C yielded a self-cleavage of 0.14. Variant U26C U31C A77G U80C has a self-cleavage of 0.26. Work on U26C U41A U48C U66C A75G yielded a self-cleavage of 0.06. Work on U26C C40U G53A A57C yielded a self-cleavage of 0.18. Work on U26C A65G U69A yielded a self-cleavage of 0.15. Work on C27A A45C A64G yielded a self-cleavage of 0.06. Work on U26G C29A A45G A64U yielded a self-cleavage of 0.12. In the case of U26C A57G A64U U66C U80C, the self-cleavage is reported as 0.06. Work on U26C A57U U60C A75G yielded a self-cleavage of 0.04. Variant U26C U49C C50A U60A has a self-cleavage of 0.17. With U26G U43A U67C A77G the self-cleavage was 0.15. For U26C G42A U69C, the self-cleavage was 0.09. U26C U60G A64G A65G C68U gave a self-cleavage of 0.14. With U26C A65G U72C the self-cleavage was 0.14. U26C U49A U58G C62U A77G showed a self-cleavage of 0.13.
